“And” between values parts separate entries of the source, which are not always exact repeats. Identical values can stand only once.
What was measured:
[1] = test system: Sprague-Dawley rats; settings: rat, in vivo
[2] = test system: Sprague-Dawley rats; settings: 12 mg/kg IV

CCC(=O)O[C@H]1C(=O)[C@@]2(C)C([C@H](OC(=O)c3ccccc3)[C@]3(O)C[C@H](OC(=O)[C@H](O)[C@@H](NC(=O)OC4CCCC4)c4cccs4)C(C)=C1C3(C)C)[C@]1(OC(C)=O)CO[C@@H]1C[C@@H]2O (stereo partly shown) [Compound 18926]
Day 4 ALT, points toward toxicity score [1]: 20 (key: 0: ALT elevation ≧2 × cont; ALT elevation ≧1.5 × cont; 10: ALT elevation ≧1.25 × cont; 20: ALT elevation <1.25 × cont)
Day 4 AST, points toward toxicity score [1]: 20 (key: 0: AST elevation ≧2 × cont.; AST elevation ≧1.5 × cont; 10: AST elevation ≧1.25 × cont; 20: AST elevation <1.25 × cont)
Day 4 BUN, points toward toxicity score [1]: 20 (key: 0: BUN elevation ≧2 × cont; BUN elevation ≧1.5 × cont; 10: BUN elevation ≧1.25 × cont; 20: BUN elevation <1.25 × cont)
Day 4 PLT, points toward toxicity score [1]: 20 (key: 0: Platelets decrease ≧75%; Platelets decrease ≧50%; 10: Platelets decrease ≧25%; 20: Platelets decrease <25%)
Day 8 BW, points toward toxicity score [1]: 20 (key: Body Weight Loss ≧20%; Body Weight Loss ≧15%; Body Weight Loss ≧10%; 20: Body Weight Loss <10%)
Score AVE [1]: 8.5

CC(=O)O[C@@]12CO[C@@H]1C[C@H](O)[C@@]1(C)C(=O)[C@H](OC(=O)C3CC3)C3=C(C)[C@@H](OC(=O)[C@H](O)[C@@H](NC(=O)OC4CCC4)c4cccs4)C[C@@](O)([C@@H](OC(=O)c4ccccc4)C12)C3(C)C (stereo partly shown) [Compound 18365]
Day 4 ALT, points toward toxicity score [1]: 20 (key: 0: ALT elevation ≧2 × cont; ALT elevation ≧1.5 × cont; 10: ALT elevation ≧1.25 × cont; 20: ALT elevation <1.25 × cont)
Day 4 AST, points toward toxicity score [1]: 20 (key: 0: AST elevation ≧2 × cont.; AST elevation ≧1.5 × cont; 10: AST elevation ≧1.25 × cont; 20: AST elevation <1.25 × cont)
Day 4 BUN, points toward toxicity score [1]: 20 (key: 0: BUN elevation ≧2 × cont; BUN elevation ≧1.5 × cont; 10: BUN elevation ≧1.25 × cont; 20: BUN elevation <1.25 × cont)
Day 4 PLT, points toward toxicity score [1]: 20 (key: 0: Platelets decrease ≧75%; Platelets decrease ≧50%; 10: Platelets decrease ≧25%; 20: Platelets decrease <25%)
Neuro Tox [1]: 0 (key: 0: no degen axons; 1-3 degen axons; 2: 4-10 degen axons; 3: 11-50 degen axons; 4: 50+ degen axons)
Neuro Tox, points toward toxicity score [1]: 0 (key: Neurotoxicity N (0); −10: Neurotoxicity Y (1-4))
Score AVE [1]: 8.5

CCC(=O)O[C@H]1C(=O)[C@@]2(C)C([C@H](OC(=O)c3ccccc3)[C@]3(O)C[C@H](OC(=O)[C@H](O)[C@@H](NC(=O)OC4CCC4)c4cccs4)C(C)=C1C3(C)C)[C@]1(OC(C)=O)CO[C@@H]1C[C@@H]2O (stereo partly shown) [Compound 19244]
Day 4 ALT, points toward toxicity score [1]: 20 (key: 0: ALT elevation ≧2 × cont; ALT elevation ≧1.5 × cont; 10: ALT elevation ≧1.25 × cont; 20: ALT elevation <1.25 × cont)
Day 4 AST, points toward toxicity score [1]: 20 (key: 0: AST elevation ≧2 × cont.; AST elevation ≧1.5 × cont; 10: AST elevation ≧1.25 × cont; 20: AST elevation <1.25 × cont)
Day 4 BUN, points toward toxicity score [1]: 20 (key: 0: BUN elevation ≧2 × cont; BUN elevation ≧1.5 × cont; 10: BUN elevation ≧1.25 × cont; 20: BUN elevation <1.25 × cont)
Day 4 PLT, points toward toxicity score [1]: 10 (key: 0: Platelets decrease ≧75%; Platelets decrease ≧50%; 10: Platelets decrease ≧25%; 20: Platelets decrease <25%)
Score AVE [1]: 7.1
rat toxicity Score, AVE (scale 0 to 10, higher = safer) ([2]; average of 3 rats): 7.7
Day 1 BW ([2]; individual rats): 231 and 230 and 227
Day 4 ALT ([2]; individual rats): 26 and 19 and 28
Day 4 AST ([2]; individual rats): 204 and 158 and 119
Day 4 BUN ([2]; individual rats): 18 and 12 (2×)
Day 4 PLT ([2]; individual rats): 1220 and 1005 and 792
Day 4 WBC ([2]; individual rats): 3.87 and 3.52 and 4.92
Day 8 BW ([2]; individual rats): 219 and 197 and 208
Day 10 BW ([2]; individual rats): 227 and 203 and 221
Day 10 PLT ([2]; individual rats): 994 and 1137 and 1370
Day 10 WBC ([2]; individual rats): 16.4 and 15 and 11.7
Score (Total/13, scale 0 to 10) ([2]; individual rats): 7.7
Total (toxicity score points, maximum 130) ([2]; individual rats): 100
